Measurements as given in PubChem BioAssay AID1645887 (National Center for Advancing Translational Sciences (NCATS), 2021).
“And” between values parts separate entries of the source, which are not always exact repeats. Equal entries are not always repeated. The whole screen tested about 16,000 compounds, of which about 40 (0.2%) were called active. About 1% were inconclusive and are not listed. Calls come from the whole dose curve; as a rule, active = well fitted activation curve with a large enough effect; inconclusive = small, poorly fitted or top-dose-only effect, or another doubt; inactive = no such curve, though single readings can be large or run the other way. This is one part of the list.

What follows are molecules tested against Rap guanine nucleotide exchange factor 4 (Homo sapiens) (UniProt Q8WZA2) (assay: Validation qHTS for agonist of cAMP-regulated guanine nucleotide exchange factor 4 (EPAC2)). Conditions: EPAC2 Rap1B BODIPY-GDP exchange, fluorescence; activation: stronger effect = higher value.
UniProt Q8WZA2, sequence (Q8WZA2 whole entry, looked up): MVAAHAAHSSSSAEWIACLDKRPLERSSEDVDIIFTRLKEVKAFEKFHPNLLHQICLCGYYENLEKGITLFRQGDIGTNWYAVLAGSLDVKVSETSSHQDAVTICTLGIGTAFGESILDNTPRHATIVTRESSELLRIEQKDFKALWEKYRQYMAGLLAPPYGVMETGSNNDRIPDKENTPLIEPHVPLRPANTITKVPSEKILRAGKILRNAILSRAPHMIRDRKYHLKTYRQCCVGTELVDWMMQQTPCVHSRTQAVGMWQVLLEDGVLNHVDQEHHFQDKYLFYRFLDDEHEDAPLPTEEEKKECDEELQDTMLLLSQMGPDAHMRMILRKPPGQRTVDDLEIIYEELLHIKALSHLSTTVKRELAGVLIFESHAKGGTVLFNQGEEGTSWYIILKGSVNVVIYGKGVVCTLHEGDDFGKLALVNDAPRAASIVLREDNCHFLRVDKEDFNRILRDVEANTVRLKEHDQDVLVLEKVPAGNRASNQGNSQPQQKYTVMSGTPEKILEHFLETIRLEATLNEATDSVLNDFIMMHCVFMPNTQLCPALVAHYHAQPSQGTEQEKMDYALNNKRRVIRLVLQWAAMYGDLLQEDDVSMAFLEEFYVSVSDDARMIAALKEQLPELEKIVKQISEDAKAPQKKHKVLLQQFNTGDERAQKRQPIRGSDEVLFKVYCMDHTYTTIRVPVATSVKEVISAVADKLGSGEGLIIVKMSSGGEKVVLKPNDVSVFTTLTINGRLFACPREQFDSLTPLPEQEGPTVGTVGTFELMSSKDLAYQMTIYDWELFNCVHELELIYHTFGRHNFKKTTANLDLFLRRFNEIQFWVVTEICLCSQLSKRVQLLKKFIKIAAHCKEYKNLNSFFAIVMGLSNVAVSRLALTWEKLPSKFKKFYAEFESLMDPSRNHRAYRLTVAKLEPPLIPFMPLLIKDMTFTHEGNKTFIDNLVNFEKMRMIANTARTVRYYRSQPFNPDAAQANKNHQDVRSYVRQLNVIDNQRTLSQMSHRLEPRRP
In short: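 Fluorescent exchange assay: 100 nM EPAC2 with 250 nM RAP1B-BODIPY-GDP and 50 uM GDP; compound added, 5 min at room temperature, then read (ex 480/em 540 nm) every 5 min for 30 min. Normalized to 6.5 mM cAMP agonist control.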
% is set by controls: 0 for no effect and ±100 for the full control effect.
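Note: exchange makes BODIPY-GDP fluorescence drop when released from Rap1B; series mostly up to about 150 µM.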

activation, inactive:
CCc1cc(C(=O)NCC2Cc3cc(C)cc(-c4cc(C(C)=O)ccc4F)c3O2)n(C)n1 (configuration not stated) -36.4%, O=c1ccn(C2OC(COP(=O)(O)OP(=O)(O)OP(=O)(O)O)C(O)C2O)c(=O)[nH]1 (configuration not stated) 5.18%, CN[C@@H]1[C@@H](O[C@H]2O[C@H](CO)[C@@H](N)[C@H](O)[C@H]2O)O[C@H]2C[C@@H](N)[C@@H](O[C@H]3[C@H](O)[C@@H](O)[C@H](N)C[C@@H]3N)O[C@@H]2[C@@H]1O -9.15%, CCS(=O)(=O)Nc1cc(C(=O)N[C@H]2CCCCNC2=O)c2c(c1)nc(-c1ccccc1)n2C -0.432%, c1cncc(CNc2cc(-c3ccoc3)ncn2)c1 -0.759%, COc1cc(CNC(=O)c2cnn(-c3ncc4c(n3)-c3ccccc3CC4)c2C)cc(OC)c1OC -26.2%, COc1ccc(-c2nc3cnc(N4CCN(C)CC4)nc3n(C)c2=O)cc1 4.49%, CCNc1ncc2nc(CCc3ccccc3)c(=O)n(-c3ccc(OC)cc3)c2n1 3.48%, C=C(CO)C1Cc2c(ccc3c(=O)c4c(oc23)COc2cc(OC)c(OC)cc2-4)O1 (configuration not stated) -11.1%, CCN(CC)CCNC(=O)COc1ccc(Cl)cc1 0.364%, O=C(c1cnccn1)N1CCC[C@@]2(CCN(c3ccncc3)C2)C1 5.81%, CCCCC(CC)CN=C(N)NC(N)=NCCCCCCN=C(N)NC(N)=NCC(CC)CCCC (configuration not stated) -34%, Cc1ccnc2ccc([N+](=O)[O-])cc12 -8.33%, CC(C)C(O)c1ccc2c(c1)CN(C(=O)c1ccccc1-n1cccn1)CCO2 (configuration not stated) 0.274%, COC(=O)C1CCN(Cc2ccc3c(c2)CN(C(=O)c2cc(C4CC4)on2)CCO3)CC1 5.71%, C=C1CC[C@H](O)CC1=C/C=C1\CCC[C@]2(C)[C@@H]([C@H](C)CC[C@@H](O)C(C)(C)O)CC[C@@H]12 -0.281%, COCCn1c(=O)c(-c2ccc(Cl)cc2)nc2cnc(OC)nc21 16.3%, FC(F)(F)c1ccccc1-c1cc(NCc2cccnc2)ncn1 -3.9%, Cn1cc(C(F)(F)F)nc1-c1ccc(OCC(O)CNCCOc2ccc(O)c(C(N)=O)c2)cc1 (configuration not stated) -4.99% and -23.7%, CN1CCN2c3ncccc3Cc3ccccc3C2C1 (configuration not stated) -15.3% and 5.53%, COc1ccccc1CN1CCC2(CC1)CCN(C(=O)c1ccncc1)CC2 -11.4%, CS(=O)(=O)Nc1cccc(-c2ccc3ncnc(NC4CCNCC4)c3c2)c1 -4.57%
